These results are taken from ChEMBL document CHEMBL4888484, “Replenishing the malaria drug discovery pipeline: Screening and hit evaluation of the MMV Hit Generation Library 1 (HGL1) against asexual blood stage Plasmodium falciparum ,using a nano luciferase reporter read-out” (2022).

By % Inhibition is commonly meant the relative decrease from the control value, in per cent.

Out of some 150,000 compounds screened, about 540 (0.36%) showed an effect of 50% or more. The list shows a part of the results.

In the assay the test system is Plasmodium falciparum. The assay can be described thus: Primary screen in NF54 nanoGlo assay, in single point, at 2uM, 72h; a lower Z score goes with more inhibition. The conditions noted are these: timepoint 72 hour. Type of assay: functional, Erythrocyte.
For `CC(C)CCN(C1CCOCC1)C1CCN(C(=O)c2ccc(F)cc2)CC1`, the “% Inhibition” value is on record as -4% and the Z score is on record as 0.49.

In the case of `O=c1c(NCc2ccccc2Cl)nccn1-c1ccc2c(c1)OCCO2`, the “% Inhibition” value is recorded as -5% and the Z score stood at 0.59.

`CC(C)n1ncc2cc(CN[C@@H](C)c3ncon3)cnc21`: the “% Inhibition” value is reported as -1% and the Z score came to 0.11.

With `O=C(CC[C@H]1NC(=O)c2ccccc2NC1=O)NCCc1nnc2ccccn12`, the “% Inhibition” value was -5% and the Z score was 1.03.

As for `CC(C)(COC(=O)c1ccccc1F)NC1=NS(=O)(=O)c2ccccc21`, the “% Inhibition” value is -7% and the Z score was found to be 0.92.

Consider `Cc1cc(C)nc(NCCCOC2CCOCC2)n1`, for which the “% Inhibition” value is -3% and the Z score stood at 0.33.

`Cc1nc(CNC(=O)Nc2cn(C)nn2)cs1`: the “% Inhibition” value is recorded as -1% and the Z score worked out at 0.12.

With `CN(CC(=O)N1CCc2ccccc2C1)c1nc2c(Cl)cccc2s1`, the “% Inhibition” value amounted to 12% and the Z score is listed as -1.91.

Take `CC(C(=O)O)N(CCOc1ccccc1)CC1CC2CC2C1` (centres undefined): the “% Inhibition” value is on record as 1% and the Z score is -0.19.

Turning to `Cc1ccc(NC(=O)Nc2cccc(CCc3nc4ccccc4n3C)c2)cc1C`, the “% Inhibition” value is -5% and the Z score is 0.75.

For the molecule `COC1CC(NC(=O)C2CCCOC2)C12CCC2` (centres undefined), the “% Inhibition” value is reported as -9% and the Z score came to 0.86.

In the case of `CC(C)c1cc(N2CCN(C(=O)c3ccc(=O)[nH]c3)CC2)nc(C(C)C)n1`, the “% Inhibition” value is -10% and the Z score is recorded as 1.47.

Turning to `O=C(Cc1c[nH]c2ccccc12)NC1CCCCCCC1`, the “% Inhibition” value amounted to 4% and the Z score is recorded as -0.57.

As to `CS(=O)(=O)NC[C@H]1CCCN(c2ncnc(N)c2Cl)C1`, the “% Inhibition” value is recorded as 34% and the Z score was -3.79.

Take `CC(c1noc(C2COCCO2)n1)C1CC1` (centres undefined): the “% Inhibition” value is listed as -5% and the Z score is 0.89.

As for `COc1ccc([C@H]2CN(C(=O)CCc3c[nH]c4ccccc34)C[C@@H]2N)cc1`, the “% Inhibition” value worked out at 5% and the Z score was -0.75.

As for `O=C1C[C@H](NC(=O)Nc2ccccc2Cl)CN1`, the “% Inhibition” value was 7% and the Z score is on record as -0.99.

As for `CC1CCC(NC(=O)Cn2ncn3c(cc4cc(F)ccc43)c2=O)CC1` (centres undefined), the “% Inhibition” value is reported as 4% and the Z score is on record as -0.48.

For the molecule `O=C(Cn1ncc2c([nH]c3ccccc32)c1=O)N1CCN(Cc2ccc3c(c2)OCO3)CC1`, the “% Inhibition” value worked out at 1% and the Z score is -0.17.

For the molecule `Cc1cc(=O)c(C(=O)NC2CCCCC2Oc2ccccc2)c[nH]1` (centres undefined), the “% Inhibition” value is -5% and the Z score stood at 0.72.

On to `CC(C)CCN1C(=O)CC[C@@H]2CN(C(=O)N3CCN(C)CC3)CC[C@@H]21`, for which the “% Inhibition” value is -18% and the Z score amounted to 2.51.

Consider `Cc1cc(C(F)(F)F)n(C[C@@H](C)CNc2ncnc3c2c(C)nn3C)n1`, for which the “% Inhibition” value is -1% and the Z score is 0.19.

`Nc1ccnc(N2CC(c3cccnc3)C2)n1`: the “% Inhibition” value is -12% and the Z score turned out to be 1.78.

Regarding `Cc1ccc(OCCN(C)CC2(C)COC2)c(C)c1`, the “% Inhibition” value is recorded as -1% and the Z score is on record as 0.2.

On to `CC[C@H](C)N(Cc1c(-c2ccccc2)nn(C)c1N(C)C)C(=O)c1cccc(F)c1`, for which the “% Inhibition” value was found to be 3% and the Z score is on record as -0.36.

Take `CC(C)c1cc(C(=O)NC(c2ccccc2)[C@H]2C[C@@H](O)C2)on1` (some centres undefined): the “% Inhibition” value was 6% and the Z score is on record as -0.95.

For the molecule `COc1ccc(NC(=O)[C@@H](NC(=O)c2cccnc2)c2ccccc2)cn1`, the “% Inhibition” value was determined as 4% and the Z score is reported as -0.47.

For the molecule `O=C(c1ccc(O[C@H]2CCOC2)nc1)N1CCc2ccccc2C1`, the “% Inhibition” value is on record as -13% and the Z score is on record as 2.4.

As to `CCCCC(C)C(=O)NC(C)c1nnnn1C` (centres undefined), the “% Inhibition” value stood at 7% and the Z score is on record as -1.32.

For `Cc1cnc(C2CC2)n1C[C@H]1CCCN(C(=O)c2ccnn2C)C1`, the “% Inhibition” value amounted to 12% and the Z score is reported as -1.51.

On to `CN1CCN(C(=O)[C@@H]2CCCN2C(N)=O)[C@@H](c2ccccc2)C1`, for which the “% Inhibition” value is 4% and the Z score was -0.81.

For `CCOC(=O)c1ccc(NS(=O)(=O)C2CCC2)c(O)c1`, the “% Inhibition” value is reported as -16% and the Z score is 3.21.

As for `COc1cccc(CNS(=O)(=O)c2ccc3c(c2)OC[C@@H](C(=O)N2CCOCC2)O3)c1`, the “% Inhibition” value is -14% and the Z score stood at 1.49.

`Cc1ccc(CCN(C[C@H]2CCCO2)S(N)(=O)=O)cc1`: the “% Inhibition” value worked out at 2% and the Z score is recorded as -0.23.

As for `CCCCN1CCN([C@@H](C(=O)NCc2ccccn2)c2ccccc2)C(=O)C1=O`, the “% Inhibition” value was -11% and the Z score came out at 2.09.

For `CCc1ccccc1NC(=O)N(CC(=O)N1c2ccccc2-n2cccc2[C@H]1c1ccccc1)C(C)C`, the “% Inhibition” value is -4% and the Z score was 0.86.

On to `COC(=O)c1cc(C)ccc1OC(=O)CN(C)S(C)(=O)=O`, for which the “% Inhibition” value is recorded as -13% and the Z score was 1.28.

As to `COc1cccc(-c2nc3ccc(C(=O)NCCc4nncn4C)cc3o2)c1`, the “% Inhibition” value was -4% and the Z score amounted to 0.76.

Turning to `Cn1nc(C2CC2)cc1CNC(=O)C(C)(C)c1cccc(Cl)c1F`, the “% Inhibition” value was found to be 0% and the Z score is 0.04.

On to `Cc1ccc(C(=O)Nc2cccc3[nH]cnc23)s1`, for which the “% Inhibition” value is reported as -8% and the Z score is recorded as 1.19.

In the case of `O=C(Nc1ccc(CCN2CCCC2)cc1)[C@@H]1CCCc2ccccc21`, the “% Inhibition” value is given as 4% and the Z score is on record as -0.7.

Take `COCCn1nnnc1[C@]1(N2CCCC2)CCN(C(=O)CCCc2ccccc2)C1`: the “% Inhibition” value was -3% and the Z score is 0.56.
